Laboratory results reported in paper PMC4336329 (PLoS ONE, 2015).
Screen size: about 310,000 compounds; about 2,200 (0.71%) showed an effect of 50% or more. Effects have a minus sign here. This is one part of the list.

These compounds were tested against human ether-à-go-go-related gene (hERG) potassium channel (human, UniProt Q12809) (assay: primary screen, population patch clamp on CHO cells stably expressing hERG).
Sequence of human ether-à-go-go-related gene (hERG) potassium channel (Q12809 whole entry, looked up): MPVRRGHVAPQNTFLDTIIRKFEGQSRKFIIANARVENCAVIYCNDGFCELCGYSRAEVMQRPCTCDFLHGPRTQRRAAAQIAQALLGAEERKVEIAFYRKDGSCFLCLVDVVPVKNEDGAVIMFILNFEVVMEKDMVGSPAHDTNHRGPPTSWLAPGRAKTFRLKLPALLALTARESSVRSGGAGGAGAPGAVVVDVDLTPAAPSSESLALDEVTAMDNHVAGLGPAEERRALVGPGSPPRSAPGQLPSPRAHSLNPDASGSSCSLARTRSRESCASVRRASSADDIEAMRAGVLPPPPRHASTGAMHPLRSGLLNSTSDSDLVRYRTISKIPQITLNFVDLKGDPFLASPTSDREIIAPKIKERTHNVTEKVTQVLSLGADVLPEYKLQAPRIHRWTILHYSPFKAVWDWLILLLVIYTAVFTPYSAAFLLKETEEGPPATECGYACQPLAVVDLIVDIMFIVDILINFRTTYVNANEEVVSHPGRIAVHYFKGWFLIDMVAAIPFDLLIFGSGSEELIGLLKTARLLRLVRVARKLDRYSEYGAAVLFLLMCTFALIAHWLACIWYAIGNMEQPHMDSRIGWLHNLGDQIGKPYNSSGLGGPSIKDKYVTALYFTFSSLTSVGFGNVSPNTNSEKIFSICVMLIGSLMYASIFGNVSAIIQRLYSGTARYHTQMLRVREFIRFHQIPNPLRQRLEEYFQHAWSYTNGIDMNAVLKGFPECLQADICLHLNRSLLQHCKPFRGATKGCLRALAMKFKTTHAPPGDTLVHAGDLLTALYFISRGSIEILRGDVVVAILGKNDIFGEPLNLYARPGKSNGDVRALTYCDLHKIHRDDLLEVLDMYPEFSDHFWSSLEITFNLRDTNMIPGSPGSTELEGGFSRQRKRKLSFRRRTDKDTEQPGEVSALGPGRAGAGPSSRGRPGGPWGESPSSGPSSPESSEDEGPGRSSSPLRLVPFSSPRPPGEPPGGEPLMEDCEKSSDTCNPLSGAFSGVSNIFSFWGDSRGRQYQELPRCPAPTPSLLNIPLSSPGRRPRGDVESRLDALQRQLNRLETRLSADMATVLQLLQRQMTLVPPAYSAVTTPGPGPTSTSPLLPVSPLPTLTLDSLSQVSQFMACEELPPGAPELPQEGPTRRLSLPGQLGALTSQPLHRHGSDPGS

Q: For `CCOc1ccccc1NC(=O)CCCN1C(=S)NC(C)(C)CC1C` (stereo not drawn), which “hERG current change (%, negative = inhibition) at 1uM” value is on record?
A: 7.34%

Q: Which “hERG current change (%, negative = inhibition) at 1uM” value does the source give for `COc1ccccc1NC(=O)C(C)n1cnc2c(oc3nc4c(cc32)CCCC4)c1=O` (stereo not drawn) here?
A: -5.93%

Q: How did the “hERG current change (%, negative = inhibition) at 1uM” value turn out when `CCn1cc(C(=O)Nc2ccc(C)cc2C)c(=O)c2ccc(C)nc21` was run?
A: 16.9%

Q: `CCOC(=O)c1c(-c2cccs2)csc1NC(=O)CC(C)C` was tested. Which “hERG current change (%, negative = inhibition) at 1uM” value did it give?
A: 16.6%

Q: For `CSc1ncccc1C(=O)Nc1ccc(S(=O)(=O)NC2=NCCCCC2)cc1`, which “hERG current change (%, negative = inhibition) at 1uM” value is on record?
A: 9.9%

Q: How did the “hERG current change (%, negative = inhibition) at 1uM” value turn out when `COc1cc(C(=O)Nc2ccc(C(=O)c3cccs3)cc2)cc(OC)c1OC` was run?
A: 6.99%

Q: How did the “hERG current change (%, negative = inhibition) at 1uM” value turn out when `NS(=O)(=O)c1ccc(NC(=S)N2CCN(c3ccccc3)CC2)cc1` was run?
A: 14.7%

Q: Which “hERG current change (%, negative = inhibition) at 1uM” value does the source give for `N#Cc1c(N2C(=O)Nc3ccccc3N2O)sc2c1CCCC2` here?
A: 16.5%

Q: With `COCCCNC(=S)NNC(=O)c1ccoc1C` as the compound, how does the “hERG current change (%, negative = inhibition) at 1uM” value read?
A: 12.6%

Q: `Cc1ccc2nc(N(CCCN(C)C)C(=O)c3ccc(S(=O)(=O)N(C)C)cc3)sc2c1.Cl` was tested. Which “hERG current change (%, negative = inhibition) at 1uM” value did it give?
A: -5.7%

Q: How did the “hERG current change (%, negative = inhibition) at 1uM” value turn out when `CN(Cc1ccccc1)c1nc2c(c(=O)[nH]c(=O)n2C)n1CCSc1nc2ccccc2[nH]1` was run?
A: -4.98%

Q: How did the “hERG current change (%, negative = inhibition) at 1uM” value turn out when `O=C(NNC(=O)c1ccc([N+](=O)[O-])cc1)c1ccncc1` was run?
A: 1.31%

Q: For `O=c1[nH]c(SCc2ccc([N+](=O)[O-])cc2)nc2[nH]ncc12`, which “hERG current change (%, negative = inhibition) at 1uM” value is on record?
A: -4.94%

Q: How did the “hERG current change (%, negative = inhibition) at 1uM” value turn out when `CCC(C)(C)NC(=O)CN(Cc1ccco1)C(=O)CCC(=O)Nc1nccs1` was run?
A: 12.8%

Q: With `COC(=O)c1ccc(S(=O)(=O)N2CCc3ccccc32)cc1` as the compound, how does the “hERG current change (%, negative = inhibition) at 1uM” value read?
A: 11.2%

Q: `CC(=O)Nc1ccc(NC(=O)C(C)OC(=O)C2(c3ccccc3F)CCCC2)cc1` (stereo not drawn) was tested. Which “hERG current change (%, negative = inhibition) at 1uM” value did it give?
A: 12.3%

Q: With `CC(C)c1cc(N2CCC(=O)NC2=O)cc(C(=O)O)c1O` as the compound, how does the “hERG current change (%, negative = inhibition) at 1uM” value read?
A: 24.5%

Q: With `CC(C)(C)OC(=O)N1CCC(C(=O)Nc2ccc3c(c2)CCC3)CC1` as the compound, how does the “hERG current change (%, negative = inhibition) at 1uM” value read?
A: -4.39%

Q: How did the “hERG current change (%, negative = inhibition) at 1uM” value turn out when `COC(=O)c1ccc(C2/C(=C(\O)c3ccc(OC)c(C)c3)C(=O)C(=O)N2c2cc(C)on2)cc1` (stereo not drawn) was run?
A: 1.53%

Q: How did the “hERG current change (%, negative = inhibition) at 1uM” value turn out when `O=C(CC1Sc2ccccc2NC1=O)Nc1cccc(-c2nnc3n2CCCCC3)c1` (stereo not drawn) was run?
A: 0.624%

Q: `CCN1CCC2(CCN(Cc3cn[nH]c3-c3ccc(OC)c(F)c3)C2)C1` (stereo not drawn) was tested. Which “hERG current change (%, negative = inhibition) at 1uM” value did it give?
A: 16.8%

Q: `CC(=O)N1c2ccc(S(=O)(=O)N3CCC(C(=O)N4CCN(c5ccc(Cl)cc5)CC4)CC3)cc2CC1C` (stereo not drawn) was tested. Which “hERG current change (%, negative = inhibition) at 1uM” value did it give?
A: -7.4%

Q: How did the “hERG current change (%, negative = inhibition) at 1uM” value turn out when `COc1ccc(-c2cc(C(F)(F)F)n3nc(N)nc3n2)cc1` was run?
A: -1.3%

Q: For `CN(C)[C@@H]1C(=O)C(C(N)=O)=C(O)[C@@]2(O)C(=O)C3=C(O)c4c(O)cccc4[C@@](C)(O)C3[C@H](O)C12.Cl` (stereo partly drawn), which “hERG current change (%, negative = inhibition) at 1uM” value is on record?
A: 5.46%

Q: `C/C=C/C(=O)OCC(=O)Nc1ccc(F)cc1Cl` was tested. Which “hERG current change (%, negative = inhibition) at 1uM” value did it give?
A: 0.796%

Q: How did the “hERG current change (%, negative = inhibition) at 1uM” value turn out when `CCCCOC(=O)Cn1c(=N)n(CCN2CCOCC2)c2ccccc21.Cl` was run?
A: -17.7%

Q: How did the “hERG current change (%, negative = inhibition) at 1uM” value turn out when `COc1ccc(NC(=S)NCc2cccs2)c(OC)c1` was run?
A: -4.33%

Q: For `CCOC(=O)c1c(NC(=S)Nc2ccccc2)sc2c1CCN(C)C2`, which “hERG current change (%, negative = inhibition) at 1uM” value is on record?
A: -62.8%

Q: For `Cc1ccc(C(=O)C(C)OC(=O)c2n[nH]c(=O)c3ccccc23)cc1` (stereo not drawn), which “hERG current change (%, negative = inhibition) at 1uM” value is on record?
A: 10.3%

Q: `Cc1nn(CCOc2ccccc2)c(=O)n1-c1c(F)cccc1F` was tested. Which “hERG current change (%, negative = inhibition) at 1uM” value did it give?
A: 4.49%

Q: For `CCOC(=O)c1cc(-c2ccc(F)cc2)n(CC(=O)NC(C)CC)c1C` (stereo not drawn), which “hERG current change (%, negative = inhibition) at 1uM” value is on record?
A: 9.56%

Q: For `Cc1cc(=O)oc2cc(NC(=O)c3ccccc3Cl)ccc12`, which “hERG current change (%, negative = inhibition) at 1uM” value is on record?
A: 18.3%

Q: With `Cc1cc2c(OCC(O)CNCc3ccco3)cccc2[nH]1` (stereo not drawn) as the compound, how does the “hERG current change (%, negative = inhibition) at 1uM” value read?
A: 17.2%

Q: With `CCOC(=O)c1c(C)[nH]c(C)c1S(=O)(=O)N(C)CC(=O)Nc1ccccc1OC` as the compound, how does the “hERG current change (%, negative = inhibition) at 1uM” value read?
A: -39.3%

Q: How did the “hERG current change (%, negative = inhibition) at 1uM” value turn out when `Cc1ccc(/C(N)=N/OC(=O)Cc2ccccc2)cc1` was run?
A: 11.4%

Q: With `COc1ccc(C2C(C#N)=C(N)Oc3c2c(C)nn3-c2ccccc2)cc1Cn1nc(C)c([N+](=O)[O-])c1C` (stereo not drawn) as the compound, how does the “hERG current change (%, negative = inhibition) at 1uM” value read?
A: 6.57%

Q: Which “hERG current change (%, negative = inhibition) at 1uM” value does the source give for `COc1cccc(N2C(=O)C(CC(=O)Nc3ccccc3)N(C3CCCCC3)C2=O)c1` (stereo not drawn) here?
A: -2.9%

Q: With `COc1cccc(NC(=O)COC(=O)c2c(C)nn(-c3ccccc3)c2C)c1` as the compound, how does the “hERG current change (%, negative = inhibition) at 1uM” value read?
A: 0.942%

Q: Which “hERG current change (%, negative = inhibition) at 1uM” value does the source give for `CC(C)C(NC(=O)c1ccccc1)c1nnc(SCC(=O)Nc2nccs2)n1C` (stereo not drawn) here?
A: 15.7%

Q: For `COc1ccc(Cl)cc1S(=O)(=O)NC1CC(C)(C)NC(C)(C)C1`, which “hERG current change (%, negative = inhibition) at 1uM” value is on record?
A: 11.7%

Q: How did the “hERG current change (%, negative = inhibition) at 1uM” value turn out when `O=P(O)(CP(=O)(c1ccccc1)c1ccccc1)c1ccccc1` was run?
A: 13.7%

Q: How did the “hERG current change (%, negative = inhibition) at 1uM” value turn out when `COc1ccc(NC(=O)CN(C)C(=O)c2cn(-c3ccccc3)nc2-c2ccc(Cl)cc2)cc1` was run?
A: 13.2%

Q: Which “hERG current change (%, negative = inhibition) at 1uM” value does the source give for `COc1ccc(OC)c(S(=O)(=O)Nc2ccccc2C(F)(F)F)c1` here?
A: 2.15%

Q: Which “hERG current change (%, negative = inhibition) at 1uM” value does the source give for `Cn1c(=O)c2[nH]c(C3CCCC3)nc2n(C)c1=O` here?
A: 16.1%

Q: How did the “hERG current change (%, negative = inhibition) at 1uM” value turn out when `O=C(CCN1CCN(Cc2ccccc2)CC1)NNC(=O)Nc1cccc(C(F)(F)F)c1` was run?
A: 2.84%

Q: How did the “hERG current change (%, negative = inhibition) at 1uM” value turn out when `CCOc1cc(C)c(Cl)cc1S(=O)(=O)n1nnc2ccccc21` was run?
A: 16%

Q: With `CC(=O)Nc1ccc(NC(=O)C2CCCN(c3nnc(-n4cccc4)s3)C2)cc1` (stereo not drawn) as the compound, how does the “hERG current change (%, negative = inhibition) at 1uM” value read?
A: 8.99%

Q: With `CC(C)CC(COCc1ccc(Cl)cc1)N1CCN(C(=O)c2ccc(Cl)cc2Cl)CCC1=O` (stereo not drawn) as the compound, how does the “hERG current change (%, negative = inhibition) at 1uM” value read?
A: 3.31%

Q: Which “hERG current change (%, negative = inhibition) at 1uM” value does the source give for `C=CCN(Cc1ccc(OC)c(OC)c1)C(=O)N1CCOCC1` here?
A: -0.0138%

Q: `CCc1ccccc1-n1c(SCC(=O)N2CCCC2)nnc1-c1ccccn1` was tested. Which “hERG current change (%, negative = inhibition) at 1uM” value did it give?
A: -3.57%

Q: With `CC(=O)c1cn(CC(=O)Nc2ccccc2F)c2ccccc12` as the compound, how does the “hERG current change (%, negative = inhibition) at 1uM” value read?
A: 7.87%

Q: Which “hERG current change (%, negative = inhibition) at 1uM” value does the source give for `O=C(NCc1ccccc1)c1ccc(Cl)cc1` here?
A: 1.35%

Q: With `COc1ccc(/C=C(\NC(=O)c2ccc(Cl)cc2)C(=O)NCCCn2ccnc2)cc1OC` as the compound, how does the “hERG current change (%, negative = inhibition) at 1uM” value read?
A: 9.45%

Q: Which “hERG current change (%, negative = inhibition) at 1uM” value does the source give for `COc1ccc(S(=O)(=O)N2CCC(C(=O)NCc3cccnc3)CC2)cc1OC` here?
A: 12.1%
